Values quoted from earlier work as cited in publication PMC10149103 (Journal of medicinal chemistry, 2022).

Tested on: Swiss Webster mice
Conditions: NLX; cited from earlier work

For `C=CCN1CC[C@]23c4c5ccc(O)c4O[C@H]2C(=O)CC[C@@]3(O)[C@H]1C5` [NLX, naloxone], the “AD50 (95% CL) to antagonize morphine-mediated antinociception” value is given as 0.05 (0.03–0.09) mg/kg.
